Among all 190,000 compounds or so, about 360 (0.19%) were called active. Inconclusive results, whose numbers are uncertain, are shown with a selection of clear calls.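 The calls were made as follows: active = GTP binding activity at least 20 points away from 100%, either lowered or raised; inconclusive = signal likely due to the compound's own green fluorescence; inactive = the rest.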
Target: Ras-related protein Rab-2A (Canis lupus familiaris) (UniProt P61105)
Assay: Rab2 wt fluorescent GTP binding changes, either direction – biochemical, dog, bead-based flow cytometry, multiplex, primary screen (AID 760);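 also: 0% = beads with excess unlabeled GTP and 100% = no-compound control corrected for plate trend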
Settings: GST-Rab2 wt beads, Bodipy-GTP binding, at 10 µM

Compound | GTP binding activity
O=C(CSc1ncnc2c1cnn2-c1ccc(F)cc1)NCc1ccc2c(c1)OCO2 | inconclusive: 90%
Oc1ccc(/C=N/NC(=S)N/N=C/c2ccc(O)cc2)cc1 | inactive: 85%
COc1ccc(-c2nc3ncccn3c2Br)cc1 | inconclusive: 92%
COc1ccc(CCC(C)Nc2ccccc2F)cc1 (centres undefined) | inconclusive: 109%
COc1ccc(S(=O)(=O)N2CCOCC2)cc1C(=O)Nc1nc2ccccc2s1 | active: 72%
O=C(COC(=O)c1ccc(S(=O)(=O)N2CCCC2)cc1)NCc1ccccc1 | inconclusive: 88%
CC(=O)Nc1ccc(C2=NNC(=Nc3cccc(S(=O)(=O)N(C)C)c3)SC2)cc1 | inconclusive: 95%
COc1cc(NS(C)(=O)=O)c(OC)cc1NC(=O)c1ccccc1 | inconclusive: 101%
Cc1cc(C)c(OCC(=O)Nc2nc3ccccc3[nH]2)c(C)c1 | inconclusive: 92%
O=C(c1ccccc1F)c1cc2c(cc1[N+](=O)[O-])OCCO2 | inactive: 93%
Cc1ccc(NC(=O)Nc2ccnc(-c3cccnc3)n2)cc1 | active: 64%
CN1C(=O)N(C)c2ccc(C=O)c3cccc1c23 | inactive: 82%
Cc1cccc(-n2c(C)cc(/C=C3\C(=N)N4N=C(CC(C)C)SC4=NC3=O)c2C)c1 | inconclusive: 85%
CN(Cc1ccccc1)S(=O)(=O)c1ccc(OCC(=O)Nc2cccc([N+](=O)[O-])c2)cc1 | inconclusive: 101%
O=c1c2cc(NC(=S)N3CCCCCC3)ccc2nc2n1CCCCC2 | inactive: 96%
COc1ccc(NC(=O)c2c(N)no[n+]2[O-])cc1 | inconclusive: 92%
Cc1cc(S(=O)(=O)N(Cc2ccc(F)cc2)CC2CCCO2)ccc1-n1cnnn1 (centres undefined) | inconclusive: 104%
COCCN(C(=S)Nc1cc(C)ccc1C)C(C)c1cccnc1 (centres undefined) | inconclusive: 589%
CCN(CC)S(=O)(=O)c1ccc(NC(=O)Cc2cccs2)cc1 | inconclusive: 97%
Cc1cccc(NS(=O)(=O)c2cccc3nonc23)c1 | inconclusive: 93%
COC(=O)c1cc2c(ccn2-c2ccc(F)cc2)n1CC(=O)OC(C)C | inconclusive: 96%
COc1ccc(Cl)cc1NC(=S)Nc1ccccc1C | inactive: 96%
CCN(CC)c1ccc(-c2nc3cnccn3c2NC2CCCC2)cc1 | inactive: 100%
COc1ccc2ccccc2c1C(=O)/C=C\c1ccoc1 | inconclusive: 98%

Compound | GTP binding activity
COCCN(CCOC)S(=O)(=O)c1ccc(C(=O)Nc2nc(-c3ccncc3)cs2)cc1 | inconclusive: 90%
COc1ccc(-c2cc(C(F)(F)F)nc(NCc3ccco3)n2)cc1OC | inconclusive: 99%
Cc1ccc(NC(=O)COC(=O)/C=C/c2cccs2)c(C)c1 | inactive: 99%
Brc1ccc(C2Nc3cccc4cccc(c34)N2)s1 | inactive: 100%
CCCOC(=O)c1ccc(Cl)c(NC(=O)c2ccc(-c3ccccc3)cc2)c1 | inconclusive: 105%
Cc1n[nH]c(C)c1S(=O)(=O)N1CCC(C(=O)O)CC1 | inconclusive: 105%
CCC(CC)C(=O)c1c[nH]c(C(=O)NCc2cccnc2)c1 | inconclusive: 92%
CCO[C@H]1OC(C(=O)N2CCN(Cc3ccc4c(c3)OCO4)CC2)=C[C@@H](C)[C@@H]1CCCO | inactive: 99%
CCN(CC)C(=O)CCCC(=O)N(CC)CC | inactive: 102%
Cc1ccc(CNC(=O)Cc2csc(Nc3nc(=S)[nH]c4ccccc34)n2)cc1 | inconclusive: 95%
Cc1cccc(C(=O)c2ccccc2C(=O)O)c1O | inconclusive: 113%
O=[N+]([O-])c1ccc(C(O)CN=Cc2ccc(O)cc2O)cc1 (centres undefined) | inactive: 98%
OC1(c2cccc(C(F)(F)F)c2)CCN(c2ncnc3c2[nH]c2ccc(F)cc23)CC1 | inconclusive: 90%
CCCC(=O)N(Cc1cc2ccccc2[nH]c1=O)c1ccccc1OC | inconclusive: 108%
Cc1c(NC(=S)NC(NC(=O)C(C)C)C(Cl)(Cl)Cl)c(=O)n(-c2ccccc2)n1C (centres undefined) | inactive: 96%
CCOC(=O)NC(Nc1ncccn1)(C(F)(F)F)C(F)(F)F | inconclusive: 93%
O=C(CSc1nnc(SCc2cccc3ccccc23)s1)c1ccc2c(c1)OCO2 | inconclusive: 87%
CCc1ccc(CNC(=O)c2cc3c(C)nc4ccccc4c3o2)cc1 | inconclusive: 85%
Cc1ccc(C(=O)NC(=S)Nc2ccc3[nH]c(=O)[nH]c3c2)c(C)c1 | inconclusive: 97%
Cc1cccc(NCC(O)Cn2cnc3c2c(=O)n(C)c(=O)n3C)c1 (centres undefined) | inactive: 115%
O=C(CCN1CCOCC1)Nc1ccccc1 | inconclusive: 102%
O=C(CCn1ccnc1)Nc1ccc2ccccc2c1 | inactive: 96%
Cc1nn(CC(=O)c2ccc(Cl)s2)c(C)c1[N+](=O)[O-] | inactive: 97%
CCC(=O)c1ccc(OCC(O)CN(CCc2ccccc2)Cc2ccccc2)cc1 (centres undefined) | inconclusive: 103%

Compound | GTP binding activity
CC1(C)Cc2ccccc2C(C(Cc2ccccc2)C(N)=O)=N1 (centres undefined) | inactive: 95%
O=C(NCCN1CCN(Cc2ccccc2)CC1)C1c2ccccc2C(=O)N2CCc3ccccc3C12 (centres undefined) | inconclusive: 107%
CCOc1ccccc1C(=O)Nc1cccc(-c2nnc(-c3ccccc3)o2)c1 | inconclusive: 80%
CC(C)CC(c1nnnn1C(C)C)N1CCN(c2cccc(Cl)c2)CC1 (centres undefined) | inconclusive: 100%
N/C(=N\OC(=O)c1cc(Cl)ccc1Cl)c1ccccn1 | inactive: 100%
CCN(CC)c1ccc(/C=c2\sc3nnc(-c4ccccc4Cl)n3c2=O)cc1 | inconclusive: 164%
O=c1c2c(nc3cc(-c4ccc(Br)cc4)[nH]n13)CCCC2 | inconclusive: 84%
Cn1ccnc1C1CCCCN1Cc1nc(-c2ccc(Cl)cc2)no1 (centres undefined) | inactive: 96%
CCCn1c(SCCc2ccccc2)nc2c1c(=O)[nH]c(=O)n2C | inconclusive: 102%
CCCCCOC(=O)C1=C(C)NC(=O)NC1c1ccccc1OCC (centres undefined) | inactive: 100%
Cc1ccc2c(c1)cc(CN(Cc1cccnc1)C(=O)c1ccccc1)c1nnnn12 | inconclusive: 94%
CC1(C)CC(NC(=O)c2ccncc2)CC(C)(C)N1O | inactive: 95%
Cc1ccc(C(=O)NN(CCC#N)C2=NS(=O)(=O)c3ccccc32)cc1 | inactive: 95%
CC(C)NC(=S)N=Nc1c(O)[nH]c2ccc([N+](=O)[O-])cc12 | active: 68%
CCNC(=O)C1CCCN1S(=O)(=O)c1ccc(OC)cc1 (centres undefined) | inconclusive: 90%
c1ccc2[nH]c3cc4ncnc4cc3nc2c1 | active: 77%
O=C(CN1CCN(c2ccccn2)CC1)Nc1ccc(OCc2ccccc2)cc1 | inconclusive: 108%
Cc1ccc(NC(=O)c2ccccc2OCC(=O)Nc2cccc(Cl)c2C)nc1 | inactive: 96%
O=C(CNCC1CCCO1)Nc1ccc(N2CCCCCC2)cc1 (centres undefined) | inconclusive: 107%
O=C(CSc1ncccn1)NCc1cccs1 | inactive: 93%
COCCN=C1Sc2nc3cc4c(cc3cc2CN1CC1CCCO1)OCO4 (centres undefined) | inactive: 95%
O=C(Cn1cnc2scc(-c3ccc(Br)cc3)c2c1=O)N1CCOCC1 | inactive: 96%
COC(=O)C(C)Oc1ccc(Oc2nc(Cl)ccc2Cl)cc1 (centres undefined) | inactive: 95%
CCc1nnc(NC(=O)CSc2nnc(CNc3ccc(F)cc3)n2C2CCCCC2)s1 | inconclusive: 169%

Compound | GTP binding activity
N#C/C(=C/c1ccc(-c2ccccc2)o1)c1nc(-c2cccs2)cs1 | inconclusive: 182%
O=C1C2C3C=CC(C2C(=O)N1C1CCCCC1)C1C2C(=O)N(C4CCCCC4)C(=O)C2C31 (centres undefined) | inactive: 98%
O=C(CSc1ncnc2ccccc12)NCCCO | inconclusive: 104%
C=CCn1c(Cn2nnc3ccccc32)nnc1SCC(=O)N/N=C/c1cc(Br)cc(OC)c1O | inconclusive: 88%
CCOc1ccc(CN(C)CC(=O)Nc2cccc(C)c2)cc1OC | inconclusive: 97%
CS(=O)(=O)c1nc(-c2ccc(F)cc2)cc(C(F)(F)F)n1 | inconclusive: 94%
Cc1cc(C(=O)OCC(=O)Nc2ccc(S(N)(=O)=O)cc2)c2ccccc2n1 | inactive: 95%
CCN(C(=O)COC(=O)/C=C/c1ccccc1)C1CCCCC1 | inactive: 97%
CC(C)N(Cc1ccccc1)CC(O)COc1ccc(S(=O)(=O)N2CCOCC2)cc1Cl (centres undefined) | inactive: 97%
CCOC(=O)c1c(C)n(C)c2ccc(OC)c([N+](=O)[O-])c12 | inactive: 99%
COc1cc(/C=N/NC(=O)CCn2nnc3ccccc32)ccc1O | inactive: 99%
Cc1cc(C(=O)N/N=C/c2ccco2)n[nH]1 | inconclusive: 96%
CC(C)(C)n1nc2c(c1NC(=O)Cc1cccc3ccccc13)CS(=O)(=O)C2 | inconclusive: 94%
CCOc1ncccc1C(=O)OCC(=O)NCCc1ccc(OC)cc1 | inconclusive: 104%
COC(=O)c1ccccc1-c1ccc(C(c2c(C)[nH][nH]c2=O)c2c(C)[nH][nH]c2=O)o1 | inconclusive: 92%
O=C1NCCN1C(=O)c1cccc(Cl)c1 | inconclusive: 103%
COc1ccc(NC(=O)c2ccc3c(c2)OCO3)cc1[N+](=O)[O-] | inconclusive: 94%
COc1ccc(-n2c(SCC(=O)NCCCN3CCCC3=O)nnc2C(C)N2CCCCC2)cc1 (centres undefined) | inconclusive: 93%
COc1ccccc1NC(=O)c1cccc(NC(=O)c2ccco2)c1 | inconclusive: 92%
O=C(COC(=O)c1ccco1)Nc1cccc(Br)c1 | inconclusive: 102%
O=C(N/N=C/c1cc2ccccc2nc1Cl)/C(=C/c1cccs1)NC(=O)c1ccccc1 | inconclusive: 90%
O=c1[nH]cnc2c1C(c1ccccc1[N+](=O)[O-])c1c(nc[nH]c1=O)O2 | inconclusive: 78%

From PubChem BioAssay AID760 (NMMLSC, 2007)
